{"source": "PubChem BioAssay AID1345083", "about": "(National Center for Advancing Translational Sciences (NCATS), 2018)", "note": "Values joined by “and” are separate entries in the source; they are usually repeats but may differ in a detail not shown here. Identical values can stand only once. About 6,200 (6.6%) of roughly 94,000 compounds were called active. The shares of active, inactive and inconclusive entries below differ from those in the screen. Calls come from the whole dose curve; as a rule, active = well fitted inhibition curve with a large enough effect; inconclusive = small, poorly fitted or top-dose-only effect; inactive = flat fitted curve, though single readings scatter. Potencies beside an inconclusive call are fits to weak or partial responses and may not hold up. % is set by controls: 0 for no effect and ±100 for the full control effect; potency is the fitted concentration of half-maximal effect; tags give direction and shape of the fitted curve."}
{"assay": "Cytotoxic Profiling in HEK 293 Cell Line of Diverse Libraries Using Quantitative High-Throughput Screening; note: nearly all actives have a fitted effect of over 60% in size", "details": "HEK 293 viability, ATP luminescence (CellTiter-Glo), 48-72 h; activity change, negative = cytotoxicity: at 115 µM (top of the series) unless noted; series mostly up to 115 µM", "outline": "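CellTiter-Glo luminescence (cellular ATP) was read after 48 or 72 hr of compound exposure at 37 degree Celsius. Cells were HEK 293 plated at 250 cells/well.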"}
{"smiles": "O[C@H]1CC[C@@H](Cc2cc(-c3ccccn3)on2)O[C@@H]1CN(Cc1ccccc1)Cc1ccccc1", "Potency": "inconclusive: 79.4 µM [inhibitor, partial curve, poor fit]"}
{"smiles": "CCc1nc2c(c(-c3ccc(Cl)cc3)n1)CN(C(C)=O)CC2", "activity change, negative = cytotoxicity": "inactive: -26.1% [at 172 µM]"}
{"smiles": "CNC(=O)c1cc(C2CC2)nc2onc(C3CCN(C(=O)Cc4ccc(F)cc4)CC3)c12", "Potency": "inconclusive: 89.1 µM [inhibitor, single point]"}
{"smiles": "COc1ccc(C(=O)Nc2ccc3c(c2)CN(Cc2cccc(OC)c2OC)C(=O)CO3)cc1OC", "Potency": "inconclusive: 50.1 µM [inhibitor, partial curve, poor fit]"}
{"smiles": "COc1ccc(-c2cc(C[C@H]3CNCC[C@H]3CC(=O)NC(C)C)no2)cc1", "activity change, negative = cytotoxicity": "inactive: -20.6% [at 172 µM]"}
{"smiles": "COc1ccc(-c2cc(N3CCCC(NC(=O)c4ccc(C(F)(F)F)cc4)C3)n[nH]2)cc1", "note": "(centres undefined)", "Potency": "inconclusive: 56.2 µM [inhibitor, partial curve, poor fit]"}
{"smiles": "Cc1cccc(-c2noc(CCC(=O)N3CCCC4(CCNCC4)CC3)n2)c1", "Potency": "inconclusive: 89.1 µM [inhibitor, single point]"}
{"smiles": "CC(C)N1CCC2(CC1)CN(C(=O)C1(c3ccccc3)CC1)Cc1ccccc1O2", "Potency": "inconclusive: 79.4 µM [inhibitor, partial curve, poor fit]"}
{"smiles": "Cn1ncc2c(C(=O)NCC(F)(F)F)cc(-c3ccc(C(F)(F)F)cc3)nc21", "activity change, negative = cytotoxicity": "inactive: 0.478%"}
{"smiles": "CC(C)CCN1CC2(CCN(C(=O)C3CC34CCCC4)CC2)OC1=O", "note": "(centres undefined)", "Potency": "inconclusive: 44.7 µM [inhibitor, partial curve, poor fit]"}
{"smiles": "Cc1noc(C)c1-c1cnc2[nH]cc(CC(=O)NCc3cccnc3)c2c1", "Potency": "inconclusive: 89.1 µM [inhibitor, partial curve]"}
{"smiles": "O=C1Nc2ccc(-c3ccccc3F)cc2C(=O)N2CCN(C(=O)COc3ccccc3)C[C@H]12", "Potency": "inconclusive: 79.4 µM [inhibitor, partial curve, poor fit]"}
{"smiles": "COc1cccc(CC(=O)N2Cc3ccccc3OC3(CCN(C)CC3)C2)c1", "Potency": "inconclusive: 89.1 µM [inhibitor, single point]"}
{"smiles": "CCCCN1CCN(C(=O)c2cc(NC(=O)C3CCC3)cc3nc(C)ccc23)CC1", "activity change, negative = cytotoxicity": "inactive: -14.9%"}
{"smiles": "COc1ccc(Nc2cnc3ccc(-c4ccc(OC)c(OC)c4)nn23)cc1OC", "Potency": "active: 89.1 µM"}
{"smiles": "CC(C)(C)C(=O)N1CCc2nc(-c3ccccc3)nc(-c3ccc(Cl)cc3)c2C1", "Potency": "inconclusive: 100 µM [inhibitor, single point]"}
{"smiles": "CCn1nccc1C(=O)N1CCC(CCn2c(C)cnc2C)CC1", "Potency": "inconclusive: 50.1 µM [inhibitor, partial curve, poor fit]"}
{"smiles": "COc1ccc(CNC(=O)c2cc(-c3ccc(C(F)(F)F)cc3)nc3c2cnn3C)cc1", "activity change, negative = cytotoxicity": "inactive: -32.2%"}
{"smiles": "O=C(Nc1ccc(F)cc1)c1ccc2oc(-c3cccnc3)nc2c1", "activity change, negative = cytotoxicity": "inactive: -20.2%"}
{"smiles": "Cc1csc(NC(=O)c2nc3c(o2)CCN(Cc2cccc(F)c2)CC3)n1", "Potency": "active: 50.1 µM"}
{"smiles": "O=C(NCc1ccc(F)c(F)c1)C1CCN(c2ccnc3ccnn23)CC1", "Potency": "inconclusive: 44.7 µM [inhibitor, partial curve]"}
{"smiles": "CC(=O)Nc1ccc(S(=O)(=O)N[C@H]2CO[C@H]3[C@@H]2OC[C@@H]3Nc2nccc(-c3ccco3)n2)cc1", "Potency": "active: 25.1 µM"}
{"smiles": "CCOCCn1c(=O)[nH]c2cc(C(=O)N(C)Cc3ccsc3)ccc21", "Potency": "inconclusive: 44.7 µM [inhibitor, partial curve, poor fit]"}
{"smiles": "CC(C)c1ccc(CNC(=O)CN2CCCc3nc(C4CC4)ncc3C2=O)cc1", "Potency": "inconclusive: 50.1 µM [inhibitor, partial curve, poor fit]"}
{"smiles": "COCCNC(=O)N1CCc2nn(Cc3ccccc3)c(=O)n2CC1", "activity change, negative = cytotoxicity": "inactive: -1.17%"}
{"smiles": "COc1ccc(C(=O)N2CCN(c3cc(-c4ccc(F)cc4)[nH]n3)CC2)cc1", "Potency": "inconclusive: 35.5 µM [inhibitor, partial curve, poor fit]"}
{"smiles": "COc1cccc(-c2ccc(C(=O)NCCNC(=O)C3CC3)cc2)c1", "Potency": "inconclusive: 89.1 µM [inhibitor, single point]"}
{"smiles": "COc1ccc(CN2C[C@@H](F)[C@@H](OCc3nc4ccncc4[nH]3)C2)cc1", "Potency": "inconclusive: 79.4 µM [inhibitor, partial curve, poor fit]"}
{"smiles": "COc1ccc2cc(C3CN(c4ncnc(C)c4C)CCO3)ccc2c1", "note": "(centres undefined)", "Potency": "inconclusive: 5.62 µM [inhibitor, partial curve, poor fit]"}
{"smiles": "O=C1CC(c2noc(-c3cccc(F)c3)n2)CN1c1ccc(F)c(Cl)c1", "note": "(centres undefined)", "activity change, negative = cytotoxicity": "inactive: -21.8%"}
{"smiles": "CCN(C)C(=O)C(C)N1CCc2onc(C(c3ccccc3)c3ccccc3)c2C1", "note": "(centres undefined)", "Potency": "inconclusive: 44.7 µM [inhibitor, partial curve]"}
{"smiles": "CCc1noc(-c2cn(C3CCCN(C(=O)c4ccc(OC)c(F)c4)C3)nn2)n1", "note": "(centres undefined)", "activity change, negative = cytotoxicity": "inactive: 2.83%"}
{"smiles": "COc1ccccc1-c1ccc(C(=O)N2CCC(NC(=O)Cc3cccc(Cl)c3)CC2)cc1", "Potency": "inconclusive: 10 µM [inhibitor, full curve, poor fit] and active: 15.8 µM"}
{"smiles": "O=C(N[C@H]1[C@H](O)[C@H](O)C[C@@H]1c1cccnc1)c1ccccc1", "activity change, negative = cytotoxicity": "inactive: -14.2% [at 172 µM]"}
{"smiles": "CNC(=O)[C@H]1C[C@H](Oc2cccnc2)CN1S(=O)(=O)Cc1ccccc1F", "activity change, negative = cytotoxicity": "inactive: 1.84%"}
{"smiles": "OCCC1CN(Cc2cc3c(cc2Cl)OCO3)CCN1Cc1ccccc1F", "note": "(centres undefined)", "Potency": "inconclusive: 50.1 µM [inhibitor, partial curve, poor fit]"}
{"smiles": "COc1cc(=O)n2c(c1C(=O)N1CCN(c3cccc(C)c3)CC1)CCCC2", "activity change, negative = cytotoxicity": "inactive: 3.09%"}
{"smiles": "Cc1cccc(-n2nc(C)c(CCC(=O)NC3CC3)c2Oc2ccccc2)c1", "Potency": "inconclusive: 44.7 µM [inhibitor, partial curve, poor fit]"}
{"smiles": "COc1ccc(NC(=O)c2nc(C(O)c3ccccc3F)oc2C)cn1", "note": "(centres undefined)", "Potency": "inconclusive: 112 µM [inhibitor, partial curve]"}
{"smiles": "COC(=O)[C@@H]1Cc2ncn(Cc3ccc(OC)cc3)c2CN1S(=O)(=O)Cc1ccccc1", "activity change, negative = cytotoxicity": "inactive: -10.9%"}
{"smiles": "COc1ccc(CCNC(=O)CC(c2cccc(OC)c2OC)c2c[nH]c3ccccc23)cc1OC", "note": "(centres undefined)", "Potency": "inconclusive: 50.1 µM [inhibitor, partial curve, poor fit]"}
{"smiles": "COc1cccc(NC(=O)Cn2c(N3CCC(C)CC3)nc(C)cc2=O)c1", "Potency": "inconclusive: 35.5 µM [inhibitor, partial curve, poor fit]"}
{"smiles": "CN(Cc1ccccc1)C(=O)c1coc(CN2CCN(c3ccccc3F)CC2)n1", "Potency": "inconclusive: 50.1 µM [inhibitor, partial curve, poor fit]"}
{"smiles": "CN(C)C(=O)c1ccc(CC2CCN(C(=O)CC3CCCCC3)CC2)cc1", "Potency": "active: 35.5 µM"}
{"smiles": "CC(=O)c1c(C)nn(CC(=O)N2CCC(c3cc(C(C)C)n[nH]3)CC2)c1C", "activity change, negative = cytotoxicity": "inactive: 2.16%"}
{"smiles": "CNC(=O)c1nc2cccnc2n(Cc2ccccc2OC)c1=O", "activity change, negative = cytotoxicity": "inactive: 1.01% [at 172 µM]"}
{"smiles": "COc1ccc(-c2cc(N3CCCN(C(=O)Cc4cccc(Cl)c4)CC3)n[nH]2)cc1", "Potency": "inconclusive: 50.1 µM [inhibitor, partial curve, poor fit]"}
{"smiles": "Fc1ccc(NC(=S)N[C@H]2CO[C@H]3[C@@H]2OC[C@@H]3n2nnnc2Oc2ccc3c(c2)OCO3)cc1", "activity change, negative = cytotoxicity": "inactive: -23.2%"}
{"smiles": "O=C1NCc2ccccc2CC12CCCN(CCCc1ccccc1)C2", "note": "(centres undefined)", "Potency": "inconclusive: 50.1 µM [inhibitor, partial curve, poor fit]"}
{"smiles": "COc1ccc(-n2nc3n(c2=O)CCN(Cc2ccc(C(F)(F)F)cc2)C3)cc1", "Potency": "inconclusive: 79.4 µM [inhibitor, partial curve]"}
{"smiles": "CN(C(=O)Cn1cccc1-c1nc(-c2ccccc2)no1)c1ccc(F)cc1", "activity change, negative = cytotoxicity": "inactive: -8.86%"}
{"smiles": "O=C(Cn1nc2c(cc1=O)CCCC2)NCc1cccc(Cl)c1", "activity change, negative = cytotoxicity": "inactive: -9.51%"}
{"smiles": "CCOC(=O)CN(Cc1cccs1)[C@@H]1C[C@@H]2CO[C@H](C(C)C)C[C@@H]2C1", "Potency": "inconclusive: 56.2 µM [inhibitor, partial curve, poor fit]"}
{"smiles": "COC1CN(c2cccc(F)c2)C12CCN(C(=O)NC1CCCCC1)CC2", "note": "(centres undefined)", "Potency": "active: 44.7 µM"}
{"smiles": "Cc1ccccc1-n1nc(C)c(CCC(=O)NCC2CCCO2)c1Oc1ccccc1F", "note": "(centres undefined)", "Potency": "inconclusive: 44.7 µM [inhibitor, partial curve, poor fit]"}
{"smiles": "COc1cccc(-c2ccc(CN3CCCC(N[S+](=O)([O-])c4cccc(C(F)(F)F)c4)C3)cc2)c1", "note": "(centres undefined)", "Potency": "inconclusive: 12.6 µM [inhibitor, full curve, poor fit]"}
{"smiles": "Cc1ccccc1Nc1n[nH]c(C(O)c2ccc3c(c2)CCO3)n1", "note": "(centres undefined)", "Potency": "inconclusive: 112 µM [inhibitor, partial curve, poor fit]"}
{"smiles": "CC(=O)NC1(C)CCN(Cc2ccccc2-c2ccc3c(ccn3C)c2)C1", "note": "(centres undefined)", "Potency": "active: 100 µM"}
{"smiles": "COc1ccc(Cl)cc1C(=O)N1CCC(Cc2nc(-c3cnccn3)no2)CC1", "activity change, negative = cytotoxicity": "inactive: -14.4%"}
{"smiles": "O=C(O)C1CCc2nnc(C3CCN([S+](=O)([O-])C4CCCC4)CC3)n21", "note": "(centres undefined)", "activity change, negative = cytotoxicity": "inactive: -10.3%"}
{"smiles": "COc1ccc(C(=O)N2CCC3(CC(c4cccc(C(F)(F)F)c4)=NO3)C2)cc1", "note": "(centres undefined)", "Potency": "inconclusive: 79.4 µM [inhibitor, partial curve, poor fit]"}
{"smiles": "O=C(NCc1cccs1)c1cc2n(n1)CC(c1ccc(Cl)cc1)OC2", "note": "(centres undefined)", "Potency": "inconclusive: 56.2 µM [inhibitor, partial curve, poor fit]"}
{"smiles": "CCN1c2cc(C(=O)Nc3ccc(F)cc3)ccc2C(=O)N2CCCCCC21", "note": "(centres undefined)", "Potency": "inconclusive: 89.1 µM [inhibitor, single point]"}
{"smiles": "Fc1ccc(CN2CC[C@H](c3nc4ccccc4o3)C2)cc1F", "Potency": "inconclusive: 126 µM [inhibitor, single point]"}
